PubChem BioAssay (NCATS)
The inconclusive results got no clear call from the source; some entries with a clear call stand among them for comparison. For part of these data: Potencies beside an inconclusive call are fits to weak or partial responses and may not hold up. Calls of active or inactive are those of the source. Calls follow the shape of the dose curve; as a rule, active = well fitted curve in the direction sought with a large enough effect; inconclusive = small, poorly fitted or top-dose-only effect, or another doubt; inactive = no such curve, though single readings can be large; an effect the other way counts as inactive or inconclusive.

What was measured:
[1] = HPAF-II Cancer Cell Toxicity qHTS against the NCATS CANVASS Library (AID 1347346); also: potency is read from the fitted curve at half-maximal effect; nearly all actives have a fitted effect of over 55% in size
In short: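 First, HPAF-II cells are plated (1000 cells/well) and held 4 h at 37 degrees C. Next, compounds are pin-transferred as an 11-point series. After 72 h, CellTiter-Glo is added and luminescence measured.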

[2] = UWB1.289 Cancer Cell Toxicity qHTS against the NCATS CANVASS Library (AID 1347347); also: potency is read from the fitted curve at half-maximal effect; nearly all actives have a fitted effect of over 60% in size
In short: (§1)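 Per well, 1000 cells; exposure 72 h with compound at 11 final concentrations; readout CellTiter-Glo luminescence.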

[3] = OV-SAHO Cancer Cell Toxicity qHTS against the NCATS CANVASS Library (AID 1347348); details: OV-SAHO viability, CellTiter-Glo luminescence, 72 h; activity change, negative = cytotoxicity: at 38.3 µM (top of the series); also: potency is read from the fitted curve at half-maximal effect; nearly all actives have a fitted effect of over 55% in size
In short: as §1

[4] = Panc-1005 Cancer Cell Toxicity qHTS against the NCATS CANVASS Library (AID 1347349); also: potency is read from the fitted curve at half-maximal effect; nearly all actives have a fitted effect of over 60% in size
In short: as §1

[5] = U-118MG Cancer Cell Toxicity qHTS against the NCATS CANVASS Library (AID 1347351); also: potency is read from the fitted curve at half-maximal effect
In short: as §1

[6] = UWB1.289-WTBRCA1 Cancer Cell Toxicity qHTS against the NCATS CANVASS Library (AID 1347354); also: potency is read from the fitted curve at half-maximal effect
In short: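 First, 1000 cells go into each well and rest for 4 hours. Next, an 11-point dilution range is pinned in. Plates then incubate 72 hours before CellTiter-Glo addition and luminescence reading.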

[7] = HPAF-II 12hr Apoptosis Induction qHTS against the NCATS CANVASS Library (AID 1347358)
In short: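 Cells plated at 500 per well are dosed with compound and incubated 12 hours at 37 degrees C. Caspase-Glo 3/7 reagent is added and, after 15 min at room temperature, luminescence proportional to caspase activity is measured.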

[8] = KB-3-1 Cancer Cell Toxicity qHTS against the NCATS CANVASS Library (AID 1347366); also: potency is read from the fitted curve at half-maximal effect; nearly all actives have a fitted effect of over 75% in size
In short: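 KB-3-1 cells (500/well) in DMEM with 10% FBS were exposed to compounds for 72 h at 37C. Viability was read by CellTiter-Glo luminescence.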

[9] = MCF7 Cancer Cell Toxicity qHTS against the NCATS CANVASS Library (AID 1347369); details: activity change, negative = cytotoxicity: at 46 µM (top of the series); also: potency is read from the fitted curve at half-maximal effect
In short: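 MCF7 cells (500/well) were exposed 72 h at 37 °C to compounds in an 11-point series. Viability was read as ATP content by CellTiterGlo luminescence.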

[10] = J3T Cancer Cell Toxicity qHTS against the NCATS CANVASS Library (AID 1347371); also: potency is read from the fitted curve at half-maximal effect
In short: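 Luminescence from CellTiterGlo, reporting cellular ATP, serves as the viability measure after 72 hr compound treatment of J3T canine glioma cells seeded at 500 cells/well.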

[11] = qHTS for Hypoxia signaling pathway (HIF-1) antagonists against the NCATS CANVASS Library (AID 1347374);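 also: HRE-bla ME-180 cells stimulated with cobalt chloride to stabilize HIF-1alpha; nearly all actives have a fitted effect of over 60% in size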
In short: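 Antagonism scored as loss of CoCl2-driven (60 uM stock added) HRE beta-lactamase signal, read by CCF4 FRET at 460/530 nm. Compounds were tested in an 11-point series on ME-180 reporter cells for 17 hrs at 37C, with parallel CellTiter-Glo cytotoxicity.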

[12] = qHTS for H2AX Agonists against the NCATS CANVASS Library (AID 1347378)
In short: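 CHO-K1 cells (1000/well, overnight at 37C) exposed to compounds at several concentrations for 3 hr at 37C, 0.76% DMSO final. Lysates read by TR-FRET (phospho-H2AX S139 Eu-cryptate antibody / H2AX-d2 antibody) after 24 hr at room temperature; 665/615 nm ratio.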

[13] = qHTS for Antimalaria activity screened against the NCATS CANVASS Library (AID 1347380); also: potency is read from the fitted curve at half-maximal effect; nearly all actives have a fitted effect of over 40% in size
In short: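 Compounds are titrated over 11 concentrations onto Dd2 parasite cultures (0.3% parasitemia, 2.5% hematocrit). Growth over 72 h at 37C in low oxygen is measured as SYBR Green DNA fluorescence after lysis.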

[14] = qHTS for activators of Nrf2/ARE signaling pathway screened against the NCATS CANVASS Library (AID 1347391); also: potency is read from the fitted curve at half-maximal effect; nearly all actives have a fitted effect of over 60% in size
In short: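 Beta-lactamase reporter signal, read as 460 and 530 nm emission under 405 nm excitation after 2 h CCF4 loading, reflected ARE activation in HepG2 cells treated 16 h with an 11-point series.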

[15] = Vero-766 cells viability qHTS against the NCATS CANVASS Library: Counterscreen for Zika virus inhibition assay (AID 1347394); details: Vero 766 viability, CellTiter-Glo luminescence, 72 h; activity change, negative = cytotoxic: at 46.1 µM (top of the series)
In short: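 Vero 766 cells (1000/well), without Zika virus, were exposed to compounds for 72 h at 37C. Viability was measured by CellTiter Glo luminescence. Media-only wells served as 100% inhibition.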

Measured: Potency
Tags tell the direction and shape of the fitted curve.

COc1cc(C2C3=C(Cc4cc5c(cc42)OCO5)C(=O)OC3)cc(OC)c1OC (stereo not given)
active: [8] 105 nM | [13] 9410 nM | [15] 186 nM
inactive: [7] | [11] | [12]
inconclusive: [1] 1060 nM [cytotoxic, partial curve] | [2] 106 nM [cytotoxic, full curve] | [3] 2110 nM [cytotoxic, partial curve] | [4] 211 nM [cytotoxic, full curve] | [5] 74.9 nM [cytotoxic, full curve] | [6] 118 nM [cytotoxic, full curve] | [9] 1040 nM [cytotoxic, full curve] | [10] 52.6 nM [cytotoxic, full curve] | [14] 4170 nM [activator, full curve, poor fit]
